# In the supplement of paper PMC8728848:
# The list shows a part of the results.
# B1: Epa7 (Candida glabrata), Q6DTM6_CANGB (protein)
# chain: MGSSHHHHHHSSGLVPRGSHMKDDYSSFLSNNNLGWTDPTEFPLGCSPNVTTPKNGLSMELYSYDLRKNGSYPCWDAAYLDPNYPRTGYKSHRLLAKVDGVTGNINFYYHATKGCTPEIDHLPASYNYPKPLTMTNFTMLLYGYFKPKVTGYHTFTISADDLLFVNFGAGNAFDCCKRESSADDFGNYQAYAVWGSQTAKDDLTVHLDAGLYYPIRIFFNNREYDAELSLTLKTESDSNPVIDFSDYFYSFDDTKDGCPGLVSYDTS
# Tests used:
# Assay in all cases: glycan array binding signal (z-score within array); higher = stronger binding
# Conditions in all cases: glycan notation: IUPAC condensed, linker removed
# [1] = target: Gal(a1-6)Glc
# Procedure, shortened: (§1)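 From the Consortium for Functional Glycomics database, 3228 arrays were curated, keeping only those whose protein sequence was available. Binding is given as a within-array Z-score averaged across arrays sharing a protein sequence and across linkers. Negative Z-scores can be read as non-binding.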
# [2] = target: Gal(b1-2)Gal
# Procedure, shortened: as §1
# [3] = target: Gal(b1-3)Gal
# Procedure, shortened: as §1
# [4] = target: Gal(b1-3)Gal(b1-4)GlcNAc
# Procedure, shortened: as §1
# [5] = target: Gal(b1-3)GalNAc
# Procedure, shortened: as §1
# [6] = target: Gal(b1-3)GalNAc(a1-3)[Fuc(a1-2)]Gal(b1-4)Glc
# Procedure, shortened: as §1
# [7] = target: Gal(b1-3)GalNAc(a1-3)[Fuc(a1-2)]Gal(b1-4)GlcNAc
# Procedure, shortened: as §1
# [8] = target: Gal(b1-3)GalNAc(b1-3)Gal
# Procedure, shortened: as §1
# [9] = target: Gal(b1-3)GalNAc(b1-3)Gal(a1-4)Gal(b1-4)Glc
# Procedure, shortened: as §1
# [10] = target: Gal(b1-3)GalNAc(b1-3)Gal(b1-4)Glc
# Procedure, shortened: as §1
# [11] = target: Gal(b1-3)GalNAc(b1-3)Gal(b1-4)GlcNAc
# Procedure, shortened: as §1
# [12] = target: Gal(b1-3)GalNAc(b1-4)Gal(b1-4)Glc
# Procedure, shortened: as §1
# [13] = target: Gal(b1-3)GalNAc(b1-4)[Neu5Ac(a2-3)]Gal(b1-4)Glc
# Procedure, shortened: as §1
# [14] = target: Gal(b1-3)GlcNAc
# Procedure, shortened: as §1
# [15] = target: Gal(b1-3)GlcNAc(a1-3)Gal(b1-4)GlcNAc
# Procedure, shortened: as §1
# [16] = target: Gal(b1-3)GlcNAc(a1-6)Gal(b1-4)GlcNAc
# Procedure, shortened: as §1
# [17] = target: Gal(b1-3)GlcNAc(b1-2)Man
# Procedure, shortened: as §1
# [18] = target: Gal(b1-3)GlcNAc(b1-2)Man(a1-3)[Gal(b1-3)GlcNAc(b1-2)Man(a1-6)]Man(b1-4)GlcNAc(b1-4)GlcNAc
# Procedure, shortened: as §1
# [19] = target: Gal(b1-3)GlcNAc(b1-2)Man(a1-3)[Gal(b1-3)GlcNAc(b1-2)Man(a1-6)]Man(b1-4)GlcNAc(b1-4)[Fuc(a1-6)]GlcNAc
# Procedure, shortened: as §1
# [20] = target: Gal(b1-3)GlcNAc(b1-2)Man(a1-3)[GlcNAc(b1-4)][Gal(b1-3)GlcNAc(b1-2)Man(a1-6)]Man(b1-4)GlcNAc(b1-4)GlcNAc
# Procedure, shortened: as §1
# [21] = target: Gal(b1-3)GlcNAc(b1-2)[Gal(b1-3)GlcNAc(b1-6)]Man(a1-6)[Gal(b1-3)GlcNAc(b1-2)Man(a1-3)]Man(b1-4)GlcNAc(b1-4)GlcNAc
# Procedure, shortened: as §1
# [22] = target: Gal(b1-3)GlcNAc(b1-3)Gal(b1-3)GlcNAc
# Procedure, shortened: as §1
# [23] = target: Gal(b1-3)GlcNAc(b1-3)Gal(b1-4)Glc
# Procedure, shortened: as §1
# [24] = target: Gal(b1-3)GlcNAc(b1-3)Gal(b1-4)GlcNAc
# Procedure, shortened: as §1
# [25] = target: Gal(b1-3)GlcNAc(b1-3)Gal(b1-4)GlcNAc(b1-2)Man(a1-3)[Gal(b1-3)GlcNAc(b1-3)Gal(b1-4)GlcNAc(b1-2)Man(a1-6)]Man(b1-4)GlcNAc(b1-4)GlcNAc
# Procedure, shortened: as §1
# [26] = target: Gal(b1-3)GlcNAc(b1-3)Gal(b1-4)GlcNAc(b1-2)[Gal(b1-3)GlcNAc(b1-3)Gal(b1-4)GlcNAc(b1-6)]Man(a1-6)[Gal(b1-3)GlcNAc(b1-3)Gal(b1-4)GlcNAc(b1-2)Man(a1-3)]Man(b1-4)GlcNAc(b1-4)[Fuc(a1-6)]GlcNAc
# Procedure, shortened: as §1
# [27] = target: Gal(b1-3)GlcNAc(b1-3)Gal(b1-4)GlcNAc(b1-3)Gal(b1-4)GlcNAc(b1-2)[Gal(b1-3)GlcNAc(b1-3)Gal(b1-4)GlcNAc(b1-3)Gal(b1-4)GlcNAc(b1-6)]Man(a1-6)[Gal(b1-3)GlcNAc(b1-3)Gal(b1-4)GlcNAc(b1-3)Gal(b1-4)GlcNAc(b1-2)Man(a1-3)]Man(b1-4)GlcNAc(b1-4)[Fuc(a1-6)]GlcNAc
# Procedure, shortened: as §1
# [28] = target: Gal(b1-3)GlcNAc(b1-3)Gal(b1-4)GlcNAc(b1-6)[Gal(b1-3)GlcNAc(b1-3)]Gal(b1-4)Glc
# Procedure, shortened: as §1
# [29] = target: Gal(b1-3)GlcNAc(b1-3)Gal(b1-4)[Fuc(a1-3)]GlcNAc
# Procedure, shortened: as §1
# [30] = target: Gal(b1-3)GlcNAc(b1-3)Gal(b1-4)[Fuc(a1-3)]GlcNAc(b1-6)[Gal(b1-3)GlcNAc(b1-3)]Gal(b1-4)Glc
# Procedure, shortened: as §1
# [31] = target: Gal(b1-3)GlcNAc(b1-3)GalNAc
# Procedure, shortened: as §1
# [32] = target: Gal(b1-3)GlcNAc(b1-6)Gal(b1-4)GlcNAc
# Procedure, shortened: as §1
# [33] = target: Gal(b1-3)GlcNAc(b1-6)GalNAc
# Procedure, shortened: as §1
# [34] = target: Gal(b1-3)GlcNAc(b1-6)[Gal(b1-3)]GalNAc
# Procedure, shortened: as §1
# [35] = target: Gal(b1-3)GlcNAc6S
# Procedure, shortened: as §1
# [36] = target: Gal(b1-3)[Fuc(a1-4)]GlcNAc
# Procedure, shortened: as §1
# [37] = target: Gal(b1-3)[Fuc(a1-4)]GlcNAc(b1-2)Man
# Procedure, shortened: as §1
binder,measurement,setting,value
B1,glycan array binding signal (z-score),[1],-0.15
same,glycan array binding signal (z-score),[2],-0.206
same,glycan array binding signal (z-score),[3],2.85
same,glycan array binding signal (z-score),[4],5.79
same,glycan array binding signal (z-score),[5],2.11
same,glycan array binding signal (z-score),[6],5.79
same,glycan array binding signal (z-score),[7],5.59
same,glycan array binding signal (z-score),[8],11
same,glycan array binding signal (z-score),[9],4.75
same,glycan array binding signal (z-score),[10],-0.277
same,glycan array binding signal (z-score),[11],-0.27
same,glycan array binding signal (z-score),[12],7.99
same,glycan array binding signal (z-score),[13],4.82
same,glycan array binding signal (z-score),[14],-0.104
same,glycan array binding signal (z-score),[15],-0.19
same,glycan array binding signal (z-score),[16],-0.187
same,glycan array binding signal (z-score),[17],-0.088
same,glycan array binding signal (z-score),[18],-0.143
same,glycan array binding signal (z-score),[19],-0.195
same,glycan array binding signal (z-score),[20],-0.119
same,glycan array binding signal (z-score),[21],-0.167
same,glycan array binding signal (z-score),[22],-0.207
same,glycan array binding signal (z-score),[23],-0.198
same,glycan array binding signal (z-score),[24],-0.192
same,glycan array binding signal (z-score),[25],-0.16
same,glycan array binding signal (z-score),[26],-0.019
same,glycan array binding signal (z-score),[27],0.026
same,glycan array binding signal (z-score),[28],0.171
same,glycan array binding signal (z-score),[29],-0.19
same,glycan array binding signal (z-score),[30],-0.105
same,glycan array binding signal (z-score),[31],-0.223
same,glycan array binding signal (z-score),[32],0.085
same,glycan array binding signal (z-score),[33],-0.209
same,glycan array binding signal (z-score),[34],1.78
same,glycan array binding signal (z-score),[35],-0.079
same,glycan array binding signal (z-score),[36],-0.248
same,glycan array binding signal (z-score),[37],-0.22
